According to the supplement of paper PMC11417369:
± gives the standard deviation of the averaged measurements. The list shows a part of the results.

These sequences were tested on PfAP2-LT AP2 domain (GST-tagged) (assay: gcPBM binding intensity (ln(normalized median fluorescence intensity)); higher = stronger DNA binding).
Outline: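 DNA-binding domains from P. falciparum, fused to GST and produced in E. coli, were put on an Agilent 4 × 180k double-stranded probe array for 1 h in 1× PBS holding 1% milk, 0.2 mg/ml BSA, 0.5% salmon testes DNA and 0.03% Triton X-100. Probes were primer-extended, 36 bp long and drawn from intergenic genomic regions, with negative controls included. After Alexa488 anti-GST antibody detection and a 488 nm scan, binding intensity was set as the highest Masliner-normalised natural-log median intensity across replicate spots of either probe orientation.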

| Sequence | gcPBM binding intensity (ln) |
| --- | --- |
| TTTTCCCTTTTTTCCGCACACAATAAAATAAATAAA [CACACA_site2807] | 8.66 ± 0.45 |
| TGTTGTTACCTATATACACACATATAAATATTATAG [CACACA_site7180] | 8.88 ± 0.41 |
| TTTTTCAGAAAAGAAACACACATATAAATATTTATA [CACACA_site7170] | 8.53 ± 0.4 |
| AAAAAAAAAAAAAAAACACACAAGGATCAGATAGAT [CACACA_site7743] | 8.95 ± 0.47 |
| AGGGCATATATATATGCACACATACATATATACATG [CACACA_site9282] | 9.26 ± 0.46 |
| AATATTATGATATTATGTACATATTAAAAGCACCAC [XGTACX_site6236] | 8.97 ± 0.37 |
| TTTACACTTTTTTTTGTACACACTAAAAAGATTAAC [CACACA_site3933] | 8.71 ± 0.42 |
| TTTTCATTCTTTTCCTTTGATTTACAATAGTATATT [GTGCAC_negctrl_site687] | 8.75 ± 0.59 |
| CAAAATATTATCATGATGCACTTTACACTCTAAGGT | 8.97 ± 0.56 |
| AAAAAATAAAAGTGGGGTACATGTCATTATGTGCAT [XGTACX_site3753] | 8.96 ± 0.45 |
| TCATTATATTATTCTTGTACTTATATCCTTTTTTGA [XGTACX_site5320] | 8.82 ± 0.56 |
| TAAAAGTTCACCTGTACACACATATATATCTGTACA [CACACA_site5019] | 9.28 ± 0.34 |
| AATATAATATATTGCACACAAAAAGTGAATTATTCT [CACACA_site1684] | 9.11 ± 0.29 |
| GTTTATTAGGAATTATGTACACAGTTTTATAAAGAA [XGTACX_site2994] | 8.51 ± 0.47 |
| AATATATACATACATACATGCACATATATATATATA [TGCATGCA_site393] | 9.755 ± 0.05 |
| AAATAGTTGTTATGGGTGCAAACCACATATATATAA [GTGCAC_site9428] | 8.75 ± 0.49 |
| AGGCCTTTTAGTATTTCACACACGTAAATGTGTATA [CACACA_site8284] | 9.24 ± 0.33 |
| ATTATTTACCACAACACACAAATATTTACCAATCAT [CACACA_site5472] | 9.02 ± 0.38 |
| ATTTGTTTAAGTCACGAACACACATATATCATCAAT [CACACA_site985] | 8.98 ± 0.42 |
| AAATATTATTCATTTTGTACGTATAATTTTTAATGA [XGTACX_site3509] | 8.72 ± 0.49 |
| GATCTTTCACATATATATATAAAGGATATTATGGTA [CACACA_negctrl_site522] | 8.54 ± 0.4 |
| AGTAGTCTGGAGAAAAGTACACAGTATCTGGTAGCT [XGTACX_site2544] | 8.88 ± 0.49 |
| TATAATAATCCACAAGCACACACACCCACATATATA [CACACA_site8343] | 9.91 ± 0.32 |
| ATTATATTATATTATACATGCATAATATTATATAAA [TGCATGCA_site647] | 8.6 ± 0.33 |
| TTATTACACAAATGGTGTACTTTTGAGGAACCAAAA [XGTACX_site4279] | 8.41 ± 0.48 |
